Measurements: patent US11484593B2, “Atropisomers of halogenated tetraphenylbacteriochlorins and chlorins and their use in photodynamic therapy” (LUZITIN, S.A., priority 2015, dated 2022)

Procedure: Absorption spectra were recorded on a Shimadzu UV-2100 spectrophotometer. Fluorescence spectra were measured with a Spex Fluorolog 3 spectrophotometer, with correction for the wavelength dependence system (RCA C31034 photomultiplier). Transient absorption spectra were measured with an Applied Photophysics LKS 60 nanosecond laser flash photolysis kinetic spectrometer, using the third harmonic of a Spectra-Physics Quanta Ray GCR 130-01 Nd/YAG laser for excitation, a Hamamatsu 1P28 photomultiplier and a Hewlett-Packard Infinium oscilloscope (1 GS/s). Flash photolysis measurements were made in the presence of air and in argon saturated solutions. Room-temperature singlet-oxygen phosphorescence was measured at 1270 nm with a Hamamatsu R5509-42 photomultiplier, cooled to 193 K in a liquid nitrogen chamber (Products for Research model PC176TSCE005), following laser excitation of aerated solutions at 355 nm, using an adapted Applied Photophysics spectrometer. […]
Photobleaching experiments were conducted in methanol:PBS (3:2) solutions, where PBS refers to phosphate-buffered saline solutions. […] For each compound, the absorbance was collected in time intervals from few minutes up to hours of irradiation. The initial absorbances of the compounds were ca. 1.0.
The transient lifetimes were measured at 400, 610 and 790 nm. […]

| SMILES | half-lives (photobleaching) |
| --- | --- |
| CNS(=O)(=O)c1ccc(F)c(-c2c3nc(c(-c4c(F)ccc(S(=O)(=O)NC)c4F)c4ccc([nH]4)c(-c4c(F)ccc(S(=O)(=O)NC)c4F)c4nc(c(-c5c(F)ccc(S(=O)(=O)NC)c5F)c5ccc2[nH]5)CC4)CC3)c1F (single isomer, unassigned) [LUZ11-A] | 4.6 min |
| CNS(=O)(=O)c1ccc(F)c(-c2c3nc(c(-c4c(F)ccc(S(=O)(=O)NC)c4F)c4ccc([nH]4)c(-c4c(F)ccc(S(=O)(=O)NC)c4F)c4nc(c(-c5c(F)ccc(S(=O)(=O)NC)c5F)c5ccc2[nH]5)CC4)CC3)c1F (single isomer, unassigned) [LUZ11-B] | 4.8 min |
